Results are given in words; binding and its absence hold for the method and conditions named. In cells and extracts the contact can be indirect. Some binding calls cover weakened binding; strength is not graded here. For some of these results: Where a sequence is shown, tags or fusion partners need not be part of it.
Assays:
[1] = target: T1, Flag-TAB1 (human (cloned from SHSY5Y cDNA)) (UniProt Q15750); test: co-IP; HEK293T co-transfected with an HA-tagged and a Flag-tagged protein; whole cell lysate in low-salt lysis buffer (50 mM Hepes pH 7.5, 150 mM NaCl, 1% Triton X-100) on anti-Flag agarose overnight at 4 °C, six washes, immunoblot
T1 sequence: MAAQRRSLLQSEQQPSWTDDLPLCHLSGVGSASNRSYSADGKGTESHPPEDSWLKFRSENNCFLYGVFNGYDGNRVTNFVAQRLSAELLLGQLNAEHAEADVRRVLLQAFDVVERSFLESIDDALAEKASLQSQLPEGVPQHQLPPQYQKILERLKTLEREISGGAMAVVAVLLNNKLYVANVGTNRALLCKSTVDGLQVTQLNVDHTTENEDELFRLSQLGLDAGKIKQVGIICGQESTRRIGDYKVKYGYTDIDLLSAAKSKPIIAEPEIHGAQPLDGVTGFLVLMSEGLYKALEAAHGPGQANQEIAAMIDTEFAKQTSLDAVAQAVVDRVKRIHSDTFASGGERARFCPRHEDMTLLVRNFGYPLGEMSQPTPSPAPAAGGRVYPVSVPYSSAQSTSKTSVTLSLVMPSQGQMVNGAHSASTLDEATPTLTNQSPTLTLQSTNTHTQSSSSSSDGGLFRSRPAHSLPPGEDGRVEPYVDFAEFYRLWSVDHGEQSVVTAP

Protein sequences, listed by entry. Tags and fused reporters are not part of them.
UniProt Q9Y6K9: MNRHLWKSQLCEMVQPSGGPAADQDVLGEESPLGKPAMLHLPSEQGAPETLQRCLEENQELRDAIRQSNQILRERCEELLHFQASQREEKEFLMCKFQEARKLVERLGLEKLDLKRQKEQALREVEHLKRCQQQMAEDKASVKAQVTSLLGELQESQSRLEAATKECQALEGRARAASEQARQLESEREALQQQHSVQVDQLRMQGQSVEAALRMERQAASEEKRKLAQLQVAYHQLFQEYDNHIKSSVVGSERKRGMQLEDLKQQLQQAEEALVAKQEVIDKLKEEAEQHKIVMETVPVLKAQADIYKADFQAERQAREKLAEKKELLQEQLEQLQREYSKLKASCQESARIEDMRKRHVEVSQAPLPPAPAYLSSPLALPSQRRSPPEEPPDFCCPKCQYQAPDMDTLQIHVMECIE

[2] = target: Flag-NEMO (human (cloned from SHSY5Y cDNA)) (UniProt Q9Y6K9); test: as above
[3] = target: T2, Flag-IKKα (human (cloned from SHSY5Y cDNA)) (UniProt O15111); test: as above
T2 sequence: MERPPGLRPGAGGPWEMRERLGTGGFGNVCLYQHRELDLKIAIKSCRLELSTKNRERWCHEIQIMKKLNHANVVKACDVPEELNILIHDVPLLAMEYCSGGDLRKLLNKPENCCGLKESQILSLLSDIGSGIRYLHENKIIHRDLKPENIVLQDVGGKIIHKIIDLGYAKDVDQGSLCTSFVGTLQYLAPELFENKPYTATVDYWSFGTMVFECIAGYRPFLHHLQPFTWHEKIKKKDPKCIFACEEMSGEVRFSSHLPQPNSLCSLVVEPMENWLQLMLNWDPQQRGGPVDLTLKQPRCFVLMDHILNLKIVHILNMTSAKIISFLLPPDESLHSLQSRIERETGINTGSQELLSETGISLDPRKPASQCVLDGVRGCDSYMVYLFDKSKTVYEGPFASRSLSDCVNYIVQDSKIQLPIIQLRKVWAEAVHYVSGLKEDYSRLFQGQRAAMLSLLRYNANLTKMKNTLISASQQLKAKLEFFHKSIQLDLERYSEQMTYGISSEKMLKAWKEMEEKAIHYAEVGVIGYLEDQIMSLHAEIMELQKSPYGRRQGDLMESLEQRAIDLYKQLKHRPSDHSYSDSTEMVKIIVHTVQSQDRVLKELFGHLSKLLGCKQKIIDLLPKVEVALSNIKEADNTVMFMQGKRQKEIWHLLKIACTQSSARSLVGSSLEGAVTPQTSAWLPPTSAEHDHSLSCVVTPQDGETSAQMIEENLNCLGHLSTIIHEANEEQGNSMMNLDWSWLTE

[4] = target: T3, Flag-TAK1 (human (cloned from SHSY5Y cDNA)) (UniProt O43318); test: as above
T3 sequence: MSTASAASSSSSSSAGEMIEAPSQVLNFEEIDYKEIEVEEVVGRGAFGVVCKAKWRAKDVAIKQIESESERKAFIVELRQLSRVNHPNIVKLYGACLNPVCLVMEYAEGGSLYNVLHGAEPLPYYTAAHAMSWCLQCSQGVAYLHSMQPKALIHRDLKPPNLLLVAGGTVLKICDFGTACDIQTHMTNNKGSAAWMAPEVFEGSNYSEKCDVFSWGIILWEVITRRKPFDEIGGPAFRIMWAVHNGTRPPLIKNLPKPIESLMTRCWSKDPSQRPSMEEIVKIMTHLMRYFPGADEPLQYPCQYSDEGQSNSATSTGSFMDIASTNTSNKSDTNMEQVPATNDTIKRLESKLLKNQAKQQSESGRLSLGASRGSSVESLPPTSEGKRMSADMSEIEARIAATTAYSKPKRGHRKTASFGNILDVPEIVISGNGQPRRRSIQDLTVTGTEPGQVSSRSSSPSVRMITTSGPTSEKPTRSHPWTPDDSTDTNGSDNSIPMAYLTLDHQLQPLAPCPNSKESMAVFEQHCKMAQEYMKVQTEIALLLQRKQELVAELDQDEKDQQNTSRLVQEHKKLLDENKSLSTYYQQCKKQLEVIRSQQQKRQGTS

[5] = target: T4, Flag-TAB2 (human (cloned from SHSY5Y cDNA)) (UniProt Q9NYJ8); test: as above
T4 sequence: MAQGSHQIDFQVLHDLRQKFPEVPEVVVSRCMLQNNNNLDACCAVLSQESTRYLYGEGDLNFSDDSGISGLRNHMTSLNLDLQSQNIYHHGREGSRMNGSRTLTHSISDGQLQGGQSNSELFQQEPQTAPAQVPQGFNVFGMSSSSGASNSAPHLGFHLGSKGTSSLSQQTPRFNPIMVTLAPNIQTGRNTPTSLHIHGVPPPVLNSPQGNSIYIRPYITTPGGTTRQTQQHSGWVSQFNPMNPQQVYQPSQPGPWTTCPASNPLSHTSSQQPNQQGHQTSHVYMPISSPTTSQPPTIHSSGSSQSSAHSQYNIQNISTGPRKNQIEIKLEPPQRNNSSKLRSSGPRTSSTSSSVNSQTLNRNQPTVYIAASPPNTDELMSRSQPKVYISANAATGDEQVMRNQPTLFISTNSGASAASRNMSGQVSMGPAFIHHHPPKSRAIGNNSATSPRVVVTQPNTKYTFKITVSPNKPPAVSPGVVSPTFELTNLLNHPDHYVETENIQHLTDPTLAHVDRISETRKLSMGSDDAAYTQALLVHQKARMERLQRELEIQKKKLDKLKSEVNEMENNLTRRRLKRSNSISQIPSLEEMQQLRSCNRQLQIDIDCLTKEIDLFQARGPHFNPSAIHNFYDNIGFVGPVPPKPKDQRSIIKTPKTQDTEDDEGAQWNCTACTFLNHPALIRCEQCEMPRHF

[6] = target: T5, Flag-TRAF2 (human (cloned from SHSY5Y cDNA)) (UniProt Q12933); test: as above
T5 sequence: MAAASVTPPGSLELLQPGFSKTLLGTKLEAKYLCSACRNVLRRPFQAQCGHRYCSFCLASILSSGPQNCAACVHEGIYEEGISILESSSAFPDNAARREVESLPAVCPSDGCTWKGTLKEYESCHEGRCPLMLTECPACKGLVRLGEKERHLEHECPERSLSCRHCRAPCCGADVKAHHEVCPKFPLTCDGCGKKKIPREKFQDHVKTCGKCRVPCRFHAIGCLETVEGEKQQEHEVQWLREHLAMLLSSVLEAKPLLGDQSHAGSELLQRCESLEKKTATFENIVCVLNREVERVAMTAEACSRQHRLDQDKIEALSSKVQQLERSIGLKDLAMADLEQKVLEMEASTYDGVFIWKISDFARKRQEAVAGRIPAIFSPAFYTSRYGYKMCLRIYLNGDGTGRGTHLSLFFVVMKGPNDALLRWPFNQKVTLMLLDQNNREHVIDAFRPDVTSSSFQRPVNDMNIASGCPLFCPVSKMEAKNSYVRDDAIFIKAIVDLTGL

[7] = target: T3, Flag-TAK1 (human (cloned from SHSY5Y cDNA)); test: co-IP; overexpressed TAK1 with endogenous CHIP, HEK293T or SHSY5Y cells, immunoblot
[8] = target: T6, endogenous TAK1 (human (endogenous in HEK293T or SHSY5Y)) (UniProt O43318); test: co-IP; endogenous proteins, HEK293T or SHSY5Y lysate incubated with indicated antibodies overnight at 4 °C, Dynabeads protein G 2 h, immunoblot
T6 sequence: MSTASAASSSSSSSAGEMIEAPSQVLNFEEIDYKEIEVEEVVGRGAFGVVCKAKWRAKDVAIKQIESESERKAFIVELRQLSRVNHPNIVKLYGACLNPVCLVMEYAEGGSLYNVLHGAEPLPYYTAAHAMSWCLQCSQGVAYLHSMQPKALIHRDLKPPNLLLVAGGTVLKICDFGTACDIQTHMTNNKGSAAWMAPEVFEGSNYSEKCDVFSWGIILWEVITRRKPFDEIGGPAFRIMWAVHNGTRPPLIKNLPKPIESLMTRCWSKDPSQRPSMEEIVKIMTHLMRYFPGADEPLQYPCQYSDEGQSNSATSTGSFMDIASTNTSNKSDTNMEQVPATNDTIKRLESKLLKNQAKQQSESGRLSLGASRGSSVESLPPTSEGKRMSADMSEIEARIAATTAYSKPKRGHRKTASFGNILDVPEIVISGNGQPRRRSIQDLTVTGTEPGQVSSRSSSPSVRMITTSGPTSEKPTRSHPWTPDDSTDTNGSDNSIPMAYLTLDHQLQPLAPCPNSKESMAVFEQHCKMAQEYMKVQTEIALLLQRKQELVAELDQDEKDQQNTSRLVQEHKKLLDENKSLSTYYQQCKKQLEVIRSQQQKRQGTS

[9] = target: Flag-NEMO (human (cloned from SHSY5Y cDNA)) (UniProt Q9Y6K9); test: co-IP; HEK293T (WT or CHIP-/-) transfected with TAK1 and a partner, with or without CHIP, CHIP T246M or CHIP-specific siRNA; anti-Flag beads, blotted with anti-HA antibody
[10] = target: Flag-CHIP (human (cloned from SHSY5Y cDNA)) (UniProt Q9UNE7); test: co-IP; HEK293T co-transfected with an HA-tagged and a Flag-tagged protein; whole cell lysate in low-salt lysis buffer (50 mM Hepes pH 7.5, 150 mM NaCl, 1% Triton X-100) on anti-Flag agarose overnight at 4 °C, six washes, immunoblot

Q: With “HA-CHIP (carboxyl terminus of HSC70-interacting protein) (from UniProt Q9UNE7 1-303)” as the molecule, how does the binding [1] read?
A: no binding

Q: And the binding [2]?
A: no binding

Q: And the binding [3]?
A: no binding

Q: And the binding [4]?
A: binds

Q: And the binding [5]?
A: no binding

Q: And the binding [6]?
A: no binding

Q: Which results are given for “endogenous CHIP (from UniProt Q9UNE7 1-303)”?
A: binding [7]: binds; binding [8]: binds

B1: HA-TAK1 (protein, UniProt O43318 1-606)
chain: MSTASAASSSSSSSAGEMIEAPSQVLNFEEIDYKEIEVEEVVGRGAFGVVCKAKWRAKDVAIKQIESESERKAFIVELRQLSRVNHPNIVKLYGACLNPVCLVMEYAEGGSLYNVLHGAEPLPYYTAAHAMSWCLQCSQGVAYLHSMQPKALIHRDLKPPNLLLVAGGTVLKICDFGTACDIQTHMTNNKGSAAWMAPEVFEGSNYSEKCDVFSWGIILWEVITRRKPFDEIGGPAFRIMWAVHNGTRPPLIKNLPKPIESLMTRCWSKDPSQRPSMEEIVKIMTHLMRYFPGADEPLQYPCQYSDEGQSNSATSTGSFMDIASTNTSNKSDTNMEQVPATNDTIKRLESKLLKNQAKQQSESGRLSLGASRGSSVESLPPTSEGKRMSADMSEIEARIAATTAYSKPKRGHRKTASFGNILDVPEIVISGNGQPRRRSIQDLTVTGTEPGQVSSRSSSPSVRMITTSGPTSEKPTRSHPWTPDDSTDTNGSDNSIPMAYLTLDHQLQPLAPCPNSKESMAVFEQHCKMAQEYMKVQTEIALLLQRKQELVAELDQDEKDQQNTSRLVQEHKKLLDENKSLSTYYQQCKKQLEVIRSQQQKRQGTS
Q: Which results are given for B1?
A: binding [9]: binds; binding [10]: binds
